Tests used:
[1] = pigs
in vivo = settings: pig, whole blood, iv

Structure (SMILES): CO[C@H]1C[C@@H]2CC[C@@H](C)[C@@](O)(O2)C(=O)C(=O)N2CCCC[C@H]2C(=O)O[C@H]([C@H](C)C[C@@H]2CC[C@@H](O)[C@H](OC)C2)CC(=O)[C@H](C)/C=C(\C)[C@@H](O)[C@@H](OC)C(=O)[C@H](C)C[C@H](C)/C=C/C=C/C=C/1C [sirolimus, (3S,6R,7E,9R,10R,12R,14S,15E,17E,19E,21S,23S,26R,27R,34aS)-9,10,12,13,14,21,22,23,24,25,26,27,32,33,34,34a-hexadeca-hydro-9,27-dihydroxy-3-[(1R)-2-[(1 S,3R,4R)-4-hydroxy-3-methoxycyclohexyl]-1-methylethyl]-10,21-dimethoxy-6,8,12,14,20,26-hexamethyl-23,27-epoxy-3H-pyrido[2,1-c][1,4]oxaazacycloh-entriacontine-1,5,11,28,29(4H,6H,31H)-pentone]
- steady-state blood level (one-phase exponential model fit) ([1]; 0.5 mg/month iv infusion, 28 days): 0.487 ng/mL
- separation in whole blood sirolimus between low dose and high dose cohorts ([1]; 0.5 vs 1.5 mg/month, all time points beyond time zero): 2-3 fold
- apparent decline from peak to day 28 sample ([1]; both cohorts (0.5 and 1.5 mg/month)): 31-37%
- Cmax (in vivo; 0.5 mg/month): 0.611 ± 0.045 ng/mL
- Tmax (in vivo; 0.5 mg/month): 72 h
- Tmax (in vivo; 1.5 mg/month): 168 h

From patent publication US20170252447A1, “INFUSABLE SOLUTION FOR LOCAL TREATMENT OF BLOOD VESSELS AND VASCULAR GRAFTS AND METHODS OF USING SUCH A SOLUTION” (Cylerus, Inc., priority 2016, published 2017)
